# Source: the supplement of paper PMC10126150
# Values marked as one replicate rest on one cluster of the flow cell; about a third of the high ones do not repeat.
# Tested on: ATP
# Test: switch fluorescence ratio, 500 uM ATP over buffer (Cy3 cluster intensity, sum of 5 cycles each) (fold (ratio)); higher = stronger signal-on switching upon ATP binding; sequences stand for … in TCGTCGGCAGCGTCAGATGTGTATAAGAGACAGTTTTTTTTTTTTTTTTTTTTTTTTT…TC
# Settings: aptamer strand: ATP DNA aptamer (quencher-CACCTGGGGGAGTATTGCGGAGGAAGG + anchor), 100 nM annealed; ATP concentration: 500 uM; one replicate
# Summary of the method: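 Cy3-labelled switching-strand clusters on a modified Illumina MiSeq flow-cell were annealed to 100 nM quencher-labelled ATP aptamer, imaged in selection buffer, then imaged after 15 min with 500 uM ATP at 22 °C. Five buffer/ATP cycles ran, with NaOH stripping and re-annealing between them. The fluorescence ratio is summed target-cycle over summed buffer-cycle Cy3 intensity per cluster, averaged per switch-domain sequence. Clusters outside 100-1000 RFU were excluded.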
# 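Also: ATP exposure 15 min at 22 °C before imaging.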
row,Sequence,switch fluorescence ratio
1,CGGACAGAAC,1.06
2,CGGACGTTAG,1.14
3,CGGACTAGGA,1
4,CGGAGACTCC,1.21
5,CGGAGCACGT,1.47
6,CGGAGCGGAT,1.34
7,CGGAGCGTCG,1.01
8,CGGAGGGTTA,1
9,CGGAGTCCAC,1.09
10,CGGAGTGTT,1.76
11,CGGAGTTACT,1.37
12,CGGATAAGGG,0.998
13,CGGATAGCT,0.989
14,CGGATATATC,0.983
15,CGGATCAATG,1.03
16,CGGATCGCCG,0.895
17,CGGATGCTAT,0.993
18,CGGATGGTTT,1.42
19,CGGATTATTA,0.993
20,CGGATTGAGG,0.933
21,CGGCAAACT,2.5
22,CGGCAAAGTG,1.07
23,CGGCAAATG,1.1
24,CGGCAATCGG,1.81
25,CGGCAGCGGC,1.05
26,CGGCAGTGGG,0.971

row,Sequence,switch fluorescence ratio
1,CGGCATATC,2.3
2,CGGCCACGGA,1.01
3,CGGCCATCAG,0.96
4,CGGCCCACGG,1.07
5,CGGCCCCGA,1.01
6,CGGCCGCCAA,3.41
7,CGGCCGTCAA,1.4
8,CGGCCGTCTG,0.956
9,CGGCCGTGTT,0.986
10,CGGCCTAGAC,1.33
11,CGGCGAAAT,0.991
12,CGGCGATAAG,1.03
13,CGGCGATTAT,1.04
14,CGGCGCGGTA,1.14
15,CGGCGCTACT,3.03
16,CGGCGGCGTC,0.982
17,CGGCGTGGGA,1.03
18,CGGCTAATCA,1.01
19,CGGCTAATT,1.03
20,CGGCTCTTGC,0.98
21,CGGCTGAGTA,1.02
22,CGGCTTTCGT,0.983
23,CGGGAACTAA,1.03
24,CGGGAAGGAC,1
25,CGGGAAGTAT,0.976
26,CGGGACAGT,0.96

row,Sequence,switch fluorescence ratio
1,CGGGACCCCA,1.01
2,CGGGAGAGCA,1
3,CGGGAGCAGA,1.17
4,CGGGAGGGCA,0.953
5,CGGGAGTGAG,1
6,CGGGAGTTCC,1
7,CGGGCACTGA,1.01
8,CGGGCACTTG,0.994
9,CGGGCAGATT,1.03
10,CGGGCATCGC,1.01
11,CGGGCCCCTT,1.02
12,CGGGCCCT,1.03
13,CGGGCCGGTG,0.996
14,CGGGCCTGTA,0.943
15,CGGGCTGAGC,1.04
16,CGGGCTTATG,1.02
17,CGGGGCGTGA,1.05
18,CGGGGTGGC,1.04
19,CGGGTAAAAG,0.999
20,CGGGTAGCCC,1.02
21,CGGGTATCAC,1.02
22,CGGGTCCAGG,1.41
23,CGGGTCCCGG,0.939
24,CGGGTCTATA,1.01
25,CGGGTGCCAG,1.19
26,CGGGTGCGG,0.991

row,Sequence,switch fluorescence ratio
1,CGGGTTCGAA,1.09
2,CGGGTTGAAG,0.97
3,CGGGTTGGCG,0.943
4,CGGTAAG,1.05
5,CGGTAGAGTG,0.978
6,CGGTAGATG,0.978
7,CGGTAGCCCG,0.915
8,CGGTAGGGAA,1.07
9,CGGTAGTGCT,0.966
10,CGGTATGAGC,0.968
11,CGGTCAACGT,0.971
12,CGGTCAGTTC,1.05
13,CGGTCCGGGA,1.04
14,CGGTCTGTTT,1.02
15,CGGTGACTGT,1.03
16,CGGTGAGGAG,0.942
17,CGGTGCCGCA,1.14
18,CGGTGCGTTT,1.04
19,CGGTGGAAGC,1.12
20,CGGTGGAGTC,0.992
21,CGGTGGC,1.17
22,CGGTGTCGCG,1.01
23,CGGTGTGCAT,0.984
24,CGGTTAACAA,1.05
25,CGGTTAGCCT,1.02
26,CGGTTCAGGG,0.979

row,Sequence,switch fluorescence ratio
1,CGGTTCGGG,1.02
2,CGGTTGCTAA,1.25
3,CGGTTGGAGA,1
4,CGGTTTCATT,1.01
5,CGTAAAATA,1.01
6,CGTAAACCAG,1
7,CGTAACTTAA,0.988
8,CGTAAGCAAT,4.95
9,CGTAAGGGG,0.988
10,CGTAATAT,2.94
11,CGTAATCTGA,1.05
12,CGTAATGGCT,1.02
13,CGTACAGGGC,1.12
14,CGTACAGTTT,0.971
15,CGTACATCGT,0.961
16,CGTACATGGC,1.09
17,CGTACCGTTC,1.02
18,CGTACGACGT,0.963
19,CGTACGGTCA,1.01
20,CGTACTACTG,1.03
21,CGTACTATGG,1.12
22,CGTACTCTAT,1.05
23,CGTACTTCAA,1.05
24,CGTAGACCTC,1.07
25,CGTAGATGGG,0.98
26,CGTAGATGTT,0.939

row,Sequence,switch fluorescence ratio
1,CGTAGCCCTC,1.17
2,CGTAGCCTCG,0.98
3,CGTAGCGGGA,1.17
4,CGTAGCGTT,1.21
5,CGTAGCTTCG,0.982
6,CGTAGGGCTT,0.954
7,CGTAGGTCAG,0.996
8,CGTAGTAGAG,0.929
9,CGTAGTTAC,2.38
10,CGTATATCAC,1.06
11,CGTATATCAG,0.971
12,CGTATCCTGC,0.966
13,CGTATCGGGA,1.01
14,CGTATCGTCG,0.968
15,CGTATGAGTA,1.01
16,CGTATGTCGG,0.91
17,CGTATTTGGC,1.03
18,CGTCACAGGG,1.12
19,CGTCACCGGT,1.05
20,CGTCACGGGG,1.03
21,CGTCACGTGA,1
22,CGTCACTCGT,1
23,CGTCAGCGTG,1.02
24,CGTCAGCTCT,1.03
